Laboratory results reported in PMC6919601, “Identification of Plasmodium dipeptidyl aminopeptidase allosteric inhibitors by high throughput screening” (PLoS ONE, 2019).
About 230 (0.21%) of roughly 110,000 compounds showed an effect of 50% or more. Some of the results follow.
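Also: 30 min substrate incubation versus DMSO and 10 µM JCP410 controls.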

These molecules were tested against DPAP1 (Plasmodium falciparum, UniProt Q8IIJ9) (assay: primary screen, percent inhibition; read by cleavage of a fluorogenic dipeptide substrate; higher = more effect of the substance).
Chain of DPAP1 (Q8IIJ9 whole entry, looked up): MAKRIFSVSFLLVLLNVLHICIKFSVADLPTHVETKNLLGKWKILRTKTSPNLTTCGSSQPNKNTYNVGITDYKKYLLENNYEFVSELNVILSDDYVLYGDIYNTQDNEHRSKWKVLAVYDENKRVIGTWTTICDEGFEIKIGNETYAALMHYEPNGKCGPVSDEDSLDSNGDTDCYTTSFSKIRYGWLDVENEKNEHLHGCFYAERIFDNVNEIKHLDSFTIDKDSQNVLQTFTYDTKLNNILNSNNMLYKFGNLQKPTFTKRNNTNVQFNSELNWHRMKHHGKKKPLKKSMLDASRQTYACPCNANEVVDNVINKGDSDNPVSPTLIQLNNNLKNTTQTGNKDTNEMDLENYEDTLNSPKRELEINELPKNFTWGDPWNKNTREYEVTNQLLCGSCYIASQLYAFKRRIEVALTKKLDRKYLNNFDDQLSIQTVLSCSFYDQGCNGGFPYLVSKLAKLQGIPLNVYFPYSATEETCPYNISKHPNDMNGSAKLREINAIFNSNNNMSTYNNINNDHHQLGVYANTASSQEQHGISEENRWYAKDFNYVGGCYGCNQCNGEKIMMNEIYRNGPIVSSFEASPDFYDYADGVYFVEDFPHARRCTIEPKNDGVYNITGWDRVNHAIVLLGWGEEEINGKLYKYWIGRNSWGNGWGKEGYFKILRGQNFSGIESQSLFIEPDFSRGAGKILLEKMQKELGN
Set-up: species or system P. falciparum D10 trophozoite lysates; single well
With `CC1(C)CC(NC(=O)C(F)(F)F)CC(C)(CNC(=O)C(F)(F)F)C1` (stereo not drawn) the “% Inhibition @ 10 uM” value was -12.3%.
For `CC1CC(C)CN(C(=O)Cc2cccc3ccccc23)C1` (stereo not drawn), the “% Inhibition @ 10 uM” value was -1.46%.
With `Cc1c2cnn(CC(=O)N(C)Cc3ccccc3)c(=O)c2c(C)n1Cc1ccccc1F` the “% Inhibition @ 10 uM” value was -3.96%.
With `NC(=O)c1c(-c2ccccc2)csc1NC(=O)C1CC1c1ccccc1` (stereo not drawn) the “% Inhibition @ 10 uM” value was 7.62%.
`O=C(NCCc1ccccc1)c1nnc(CS(=O)(=O)c2ccccc2)o1` was tested, and the “% Inhibition @ 10 uM” value was 0.91%.
`CCc1nnc(NC(=O)c2cc(=O)c3ccc(C)c(C)c3o2)s1` was tested, and the “% Inhibition @ 10 uM” value was -1.47%.
For `C=CCN1C(=O)NC(=O)/C(=C/c2ccc(-c3ccc(Cl)c(C(=O)O)c3)o2)C1=O`, the “% Inhibition @ 10 uM” value was 6.42%.
For `CCS(=O)(=O)C1=NSC2=NC(=O)/C(=C\c3cc(C)n(-c4ccccc4F)c3C)C(=N)N21`, the “% Inhibition @ 10 uM” value was 5.06%.
For `CN(Cc1ccccc1)C(=O)c1cccnc1`, the “% Inhibition @ 10 uM” value was 1.38%.
`CC/N=c1\c(NS(=O)(=O)CC)c(O)oc2ccccc12` was tested, and the “% Inhibition @ 10 uM” value was 1.49%.
With `CCOc1ccc(CCNCc2c(C(=O)O)n(Cc3ccc(OC)cc3)c3cc(OC)ccc23)cc1` the “% Inhibition @ 10 uM” value was 3.64%.
For `O=C(c1ccc(Cl)cc1)N1CCCN(C(=O)c2ccc(Cl)cc2)CC1`, the “% Inhibition @ 10 uM” value was 3.79%.
For `CCO/C(O)=C1\C(C)=NC2=C(C(=O)CC(C)(C)C2)C1c1ccc(Cl)cc1Cl` (stereo not drawn), the “% Inhibition @ 10 uM” value was -1.03%.
For `O=C(Cc1ccccc1)NCCCc1nc2ccccc2n1Cc1ccccc1`, the “% Inhibition @ 10 uM” value was 4.11%.
For `Cc1ccc(-c2csc(C3C(N)=NC(S)=C(C#N)C34CCCCC4)n2)cc1` (stereo not drawn), the “% Inhibition @ 10 uM” value was 89.8%.
With `CCc1ccc(NC(=O)C2CC(C)=C(C)CC2C(=O)O)cc1` (stereo not drawn) the “% Inhibition @ 10 uM” value was -6.02%.
In the case of `O=C(CN1C(=O)c2cccc3cccc1c23)NCCSCc1ccco1`, the “% Inhibition @ 10 uM” value is reported as 2.65%.
`Cc1nc(CC(=O)Nc2nnc(C3CCCO3)s2)cs1` (stereo not drawn) was tested, and the “% Inhibition @ 10 uM” value was -2.71%.
For `CCOc1ccccc1C(=O)Nc1ccc(CC)cc1`, the “% Inhibition @ 10 uM” value was -5.82%.
With `COc1ccc(Cn2c(=O)c3cccnc3n(Cc3ccc(C#N)cc3)c2=O)cc1` the “% Inhibition @ 10 uM” value was 0.0579%.
For `COc1ccc(CC(=O)Nc2ncc(Cc3cccc4ccccc34)s2)cc1`, the “% Inhibition @ 10 uM” value was 0.484%.
For `CCSc1nnc(NC(=O)CSc2nnc(Cc3cccn3C)n2C)s1`, the “% Inhibition @ 10 uM” value was 1.94%.
In the case of `CCOC(=O)N1CCN(C(=O)CCc2c(C)nc3c(c2C)c(=O)n(C)c(=O)n3C)CC1`, the “% Inhibition @ 10 uM” value is reported as 2.12%.
With `O=C(COc1ccccc1)n1nc(-c2ccccc2)nc1NCc1ccc(F)cc1` the “% Inhibition @ 10 uM” value was -6.71%.
With `Cc1cc(C)c(C(=O)c2ccc(C(=O)N3CCOCC3)cc2)c(C)c1` the “% Inhibition @ 10 uM” value was 1.41%.
In the case of `CC1(C)CC2=Nc3ccc4ccccc4c3C(c3cccnc3)C2=C(O)C1` (stereo not drawn), the “% Inhibition @ 10 uM” value is reported as -4.03%.
With `COCCNC(=O)c1ccc2c(c1)ncn2-c1cc(C)cc(C)c1` the “% Inhibition @ 10 uM” value was 3.04%.
With `CNC(=O)Cn1ncc2c(C)n(Cc3ccccc3F)c(C)c2c1=O` the “% Inhibition @ 10 uM” value was 2.84%.
With `Oc1ccc(/C=C/c2nc3ccccc3s2)cc1` the “% Inhibition @ 10 uM” value was -1.22%.
In the case of `O=C(CN1C(=O)S/C(=C/c2ccc(O)cc2)C1=O)Nc1cccc2ccccc12`, the “% Inhibition @ 10 uM” value is reported as -1.91%.
For `CC(=O)NCCNc1nc2c(-c3cccc(Br)c3)nnn2c2ccccc12`, the “% Inhibition @ 10 uM” value was -1.21%.
`COc1ccc(CNCc2ccccc2C(F)(F)F)cc1OC` was tested, and the “% Inhibition @ 10 uM” value was -2.22%.
For `CCOc1ccc(NC(=O)c2cccc(C)c2)cc1`, the “% Inhibition @ 10 uM” value was 4.6%.
In the case of `O=C(O)c1ccccc1C(=O)N1CCC(O)(c2ccc(Cl)cc2)CC1`, the “% Inhibition @ 10 uM” value is reported as -0.318%.
With `COc1cc(OC)cc(-c2cc3nc(C4CCN(C(=O)OC(C)(C)C)CC4)cc(O)n3n2)c1` the “% Inhibition @ 10 uM” value was 0.708%.
`CCN1C2=C(C(=O)CCC2)C(c2cccc(O)c2)C2=C1CCCC2=O` was tested, and the “% Inhibition @ 10 uM” value was 3.47%.
`CCCOc1ccc(C2C(C#N)=C(N)Oc3[nH]nc(C)c32)cc1OCC` (stereo not drawn) was tested, and the “% Inhibition @ 10 uM” value was -0.941%.
In the case of `N#CC1(NC(=O)[C@H](Cc2c(F)cccc2F)NC(=O)c2ccc(-c3ccccc3Cl)cc2)CCOCC1`, the “% Inhibition @ 10 uM” value is reported as -0.207%.
`COc1cc(C=C2C(=O)OC(C)(C(C)(C)C)OC2=O)ccc1O` (stereo not drawn) was tested, and the “% Inhibition @ 10 uM” value was 0.275%.
In the case of `O=C(O)c1ccccc1/C(=N/O)c1ccc2c(c1)Cc1ccccc1-2`, the “% Inhibition @ 10 uM” value is reported as 12.6%.
For `Cn1nc(C(=O)N2CCc3ccccc3C2)c2c1-c1ccccc1SC2`, the “% Inhibition @ 10 uM” value was 26.4%.
For `O=c1/c(=C/C=C/c2ccccc2)sc2nc(-c3cccs3)nn12`, the “% Inhibition @ 10 uM” value was -9.16%.
In the case of `COc1ccc(C2C3=C(O)CCCC3=Nc3ncnn32)cc1Br` (stereo not drawn), the “% Inhibition @ 10 uM” value is reported as 1.73%.
For `O=C(NC1CCCCC1)c1ccccc1NC(=O)C1CCCCC1C(=O)O` (stereo not drawn), the “% Inhibition @ 10 uM” value was 0.795%.
In the case of `CC(C)CCn1c(CCCNC(=O)C(C)C)nc2ccccc21`, the “% Inhibition @ 10 uM” value is reported as -0.551%.
`CN1CC=C2C(C#N)=C(N)C(C#N)(C#N)C(c3ccccc3C(F)(F)F)C2C1` (stereo not drawn) was tested, and the “% Inhibition @ 10 uM” value was 4.86%.
With `COc1ccc2nc(N3CC(C)OC(C)C3)cc(C)c2c1` (stereo not drawn) the “% Inhibition @ 10 uM” value was -5.39%.
For `Cc1cc(/C=C2\NC(=O)N(Cc3ccc(Cl)cc3)C2=O)c(C)n1C`, the “% Inhibition @ 10 uM” value was 0.487%.
For `c1ccc(Cn2ncc3nc4ccccc4nc32)cc1`, the “% Inhibition @ 10 uM” value was -0.403%.
`Clc1nccc2c(Br)cccc12` was tested, and the “% Inhibition @ 10 uM” value was -2.83%.
For `CC(C)CC(NC(=O)Nc1cccnc1)C(=O)NCC#N` (stereo not drawn), the “% Inhibition @ 10 uM” value was -9.15%.
For `O=C(c1cccnc1)N1CCN(c2cccc(Cl)c2)CC1`, the “% Inhibition @ 10 uM” value was -1.5%.
With `COc1ccccc1C1NC(=O)NC2=C1CCc1ccccc12` (stereo not drawn) the “% Inhibition @ 10 uM” value was 2.22%.
With `COc1ccc(-c2cc(=O)c3cc(Br)ccc3o2)cc1OC` the “% Inhibition @ 10 uM” value was 3.17%.
With `CCCn1cc(NC(=O)C2=CC(c3ccc(OC)cc3)=NS(=O)(=O)N2C)cn1` the “% Inhibition @ 10 uM” value was 2.32%.
`Cc1ccc(N(CC(=O)Nc2ccccc2F)S(=O)(=O)c2ccccc2)c(C)c1` was tested, and the “% Inhibition @ 10 uM” value was -8.28%.
For `O=C(Nc1ccccc1C(=O)O)c1cc([N+](=O)[O-])ccc1Cl`, the “% Inhibition @ 10 uM” value was 4.54%.
In the case of `N#C/C(=C(/O)c1ccc(Cl)cc1Cl)c1nc(O)c2ccccc2n1`, the “% Inhibition @ 10 uM” value is reported as 17%.
For `Cc1ccc(S(=O)(=O)Nc2ccc(-c3cn4cccc(C)c4n3)cc2)cc1`, the “% Inhibition @ 10 uM” value was 0.755%.
With `Cc1n[nH]c(C)c1N1C(=O)c2cccc3cccc(c23)C1=O` the “% Inhibition @ 10 uM” value was -12.5%.
`COc1cccc(CCNC2CC(=O)N(c3ccc(C)cc3)C2=O)c1` (stereo not drawn) was tested, and the “% Inhibition @ 10 uM” value was -5.1%.
With `CC(=O)N1CCN(CC(C)(C)NS(=O)(=O)c2ccccc2)CC1` the “% Inhibition @ 10 uM” value was -5.16%.
With `CC(=O)c1cccc(Nc2cc(C)nc3ncnn23)c1` the “% Inhibition @ 10 uM” value was -7.08%.
